Measured values reported in a compilation of properties of binary mixtures (doi:10.1016/j.fluid.2019.112304).
The densities may have been worked out from excess volumes.

Assay: xn = mol fraction of the nth substance listed
Conditions: 101 kPa

CCCCO + CCCCCCCCCCCC[N+](C)(C)Cc1ccccc1.O=S(=O)([N-]S(=O)(=O)C(F)(F)F)C(F)(F)F
x2 = 0
Conditions | mass density [kg/m3]
303.15 K | 802.1
318.15 K | 790.2
323.15 K | 785.9
328.15 K | 782.2
333.15 K | 777.8
338.15 K | 773.9

CCCCCCCCCCCC[N+](C)(C)Cc1ccccc1.O=S(=O)([N-]S(=O)(=O)C(F)(F)F)C(F)(F)F + CCCCO
mass density [kg/m3]
Conditions | x1 = 0.1507 | x1 = 0.3015 | x1 = 0.4494 | x1 = 0.594 | x1 = 0.7485 | x1 = 0.9164 | x1 = 1
293.15 K | 1006.8 | 1092.4 | 1139.4 | 1169.2 | 1191.2 | 1208.9 | 1216.8
298.15 K | 1002.8 | 1088.4 | 1135.5 | 1165 | 1187.2 | 1205 | –
303.15 K | 998.8 | – | 1131.4 | 1161.2 | 1183.2 | 1201 | 1208.9
308.15 K | 994.7 | – | 1127.1 | 1158 | 1179.3 | 1197 | –
313.15 K | 990.6 | 1076.1 | 1123.3 | 1153.1 | – | 1193.1 | 1201
318.15 K | – | 1072.1 | – | 1149.1 | 1171.4 | 1189.2 | 1197.1
323.15 K | 982.4 | 1068 | 1115.3 | 1145.2 | 1167.4 | 1185.3 | 1193.2
328.15 K | 978.3 | 1063.9 | 1111.3 | 1141.2 | 1163.5 | – | 1189.2
333.15 K | – | 1059.8 | – | – | 1159.6 | 1177.5 | 1185.3
338.15 K | 970 | 1055.7 | 1103.3 | 1133.4 | – | 1173.6 | –
343.15 K | 965.8 | 1051.6 | 1099.3 | 1129.4 | – | 1169.7 | 1177.4
348.15 K | 961.6 | 1047.5 | 1095.2 | – | 1147.8 | 1165.7 | 1173.4

c1ccsc1 + N#C[C-](C#N)C#N.OCC[n+]1ccccc1
x2 = 0
Conditions | mass density [kg/m3]
293.15 K | 1064.4
298.15 K | 1058.5
308.15 K | 1046.7
313.15 K | 1040.7
318.15 K | 1034.8
323.15 K | 1028.7
328.15 K | 1022.5
338.15 K | 1010.2
343.15 K | 1003.9

N#C[C-](C#N)C#N.OCC[n+]1ccccc1 + c1ccsc1
mass density [kg/m3]
Conditions | x1 = 0.4042 | x1 = 0.4996 | x1 = 0.6 | x1 = 0.7041 | x1 = 0.8044 | x1 = 0.901 | x1 = 1
293.15 K | 1149 | 1155.2 | 1160 | – | 1167.3 | 1170 | –
298.15 K | 1145 | 1151.5 | 1156.4 | 1160.5 | 1163.8 | – | 1170.4
303.15 K | 1141.4 | – | 1152.7 | 1156.9 | 1160.2 | – | 1167
308.15 K | 1137.6 | 1144 | 1149 | 1153.3 | 1156.7 | 1159.6 | 1163.5
313.15 K | 1133.8 | 1140.2 | 1145.4 | 1149.8 | 1153.2 | 1156.1 | 1160.1
318.15 K | 1130 | 1136.5 | 1141.8 | 1146.2 | – | 1152.7 | 1156.8
323.15 K | 1126.2 | 1132.8 | – | 1142.7 | 1146.3 | 1149.2 | 1153.4
328.15 K | 1122.5 | 1129.1 | 1134.6 | – | 1142.8 | – | 1150
333.15 K | 1118.7 | – | – | 1135.7 | 1139.4 | 1142.5 | 1146.7
338.15 K | – | – | 1127.5 | – | 1136 | 1139.1 | 1143.4
343.15 K | 1111 | – | 1123.9 | 1128.8 | – | 1135.8 | 1140.1
348.15 K | 1107.3 | 1114.2 | 1120.4 | 1125.3 | 1129.2 | 1132.4 | 1136.8
